The campaign covered roughly 410,000 compounds. About 1,200 (0.29%) were called active. Inconclusive means that the source gave no clear call. Such entries were picked first, then a sample of the others. Calls come from the whole dose curve; as a rule, active = well fitted activation curve with a large enough effect; inconclusive = small, poorly fitted or top-dose-only effect; inactive = flat fitted curve, though single readings scatter. A potency beside an inconclusive call is a rough fit, not a confirmed value.
assay: qHTS of Nrf2 Activators; conditions: AREc32 ARE-luciferase reporter (MCF7-derived line), luminescence, 24 h; activation: at 46.1 µM (top of the series); note: nearly all actives have a fitted effect of over 65% in size
In short: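 Nrf2 activation is followed as ARE-luciferase induction in the AREc32 line after one day of compound treatment; luminescence is read with Steady-Glo.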
Potency is the fitted concentration of half-maximal effect; tags give direction and shape of the fitted curve.

Potency, active:
Nc1ccccc1C=C1Cc2ccccc2C1=O 2.82 µM
O=C1/C(=C/C=C/c2ccco2)SC(=S)N1c1ccc(O)cc1 10 µM
CN1c2ccsc2/C(=N/Nc2ccc(F)cc2)CS1(=O)=O 12.6 µM
Cc1ccccc1-c1nc(-c2cccnc2)no1 12.6 µM
O=C(Cn1cnc2ccccc21)N/N=C/C(Br)=C/c1ccccc1 7.08 µM

Potency, inactive:
CCc1ccc2nc(NC(=O)CCCc3cccs3)sc2c1
O=C(NC(C(=O)N/N=C/c1cc([N+](=O)[O-])ccc1O)c1n[nH]c(=O)c2ccccc12)c1ccccc1 (stereo unspecified)
CC(=O)Oc1ccc(C(=O)Nc2ccc3c(c2)C(=O)N(CCC(=O)O)C3=O)cc1
COc1ccc(N2CCN(c3ncnc4scc(-c5ccc(C)cc5)c34)CC2)cc1
CCc1ccc(-n2c(Cc3ccccc3)nnc2SCc2nc(-c3cccs3)no2)cc1
NS(=O)(=O)c1ccc(NC(=S)N2CCN(c3ccc(Cl)c(Cl)c3)CC2)cc1
O=C(CN1CCN(S(=O)(=O)c2ccccc2)CC1)Nc1ccc([N+](=O)[O-])cc1
CC1(C)C(=O)Nc2ccccc2N1C(=O)CSc1nnc2c(Cl)cc(Cl)cn12
CCN(CC)c1ccc(NS(=O)(=O)c2cc3[nH]c(=O)c(=O)[nH]c3cc2C)c(C)c1
CCCC1Nc2ccc(C(=O)O)cc2C2C=CCC12 (stereo unspecified)
CCOc1ccccc1NC(=O)c1cc2ccccc2oc1=O
Cc1ccc(SCc2cc(=O)c3c(=O)n(-c4ccccc4)[nH]c3[nH]2)cc1

Potency, inconclusive:
CN(/N=C/c1cc(Br)cc(Br)c1O)c1ccccc1 2.82 µM [activator, full curve, poor fit]
O=CC1=C(N2CCOCC2)/C(=C/c2ccc(Cl)cc2)CC1 31.6 µM [activator, single point]
CCOc1ccc(NC(=O)C2CCN(c3nnc(-n4c(C)ccc4C)s3)CC2)cc1 17.8 µM [activator, single point]
O=C(NCc1ccccc1)C1CCN(S(=O)(=O)c2cc([N+](=O)[O-])ccc2Cl)CC1 14.1 µM [activator, single point]
Cc1ccc(Cl)c2sc(NC(=O)C3CC3)nc12 2.82 µM [activator, full curve, poor fit]
Cc1ccc2cc(C#N)c(NCc3ccco3)nc2c1 22.4 µM [activator, single point]
Cn1cc([N+](=O)[O-])c(C(=O)Nc2sc3c(c2C#N)CCC3)n1 4.47 µM [activator, single point]
CCCc1cc(C(=O)Nc2cc(Cl)ccc2O)no1 22.4 µM [activator, single point]
CCc1ccc2oc(-c3cccc(N)c3)nc2c1 3.16 µM [activator, single point]
C(=C\c1ccco1)/C1=NN(c2ccccc2)C(c2ccco2)C1 (stereo unspecified) 17.8 µM [activator, partial curve, poor fit]
Cc1nn(-c2ccccc2)c(Cl)c1/C=C/C(=O)c1ccccc1 35.5 µM [activator, single point]
O=C(Nc1ccc(S(=O)(=O)N2CCCC2)cc1)c1ccc([N+](=O)[O-])o1 5.01 µM [activator, single point]
O=C(Nc1ccc(Cl)cn1)c1cnn2cccnc12 2.82 µM [activator, full curve, poor fit]
CCOc1ccccc1NC(=O)N1CCc2ccccc2C1 11.2 µM [activator, partial curve]
O=C1/C(=C/c2cccnc2)CCc2c1[nH]c1ccccc21 22.4 µM [activator, single point]
CSc1nc(-c2ccc(Cl)cc2)nc(N)c1C#N 3.16 µM [activator, single point]
Cn1nnnc1Sc1ncnc2scc(-c3ccc4c(c3)OCO4)c12 1.41 µM [activator, partial curve, poor fit]
O=C(Nc1ccccn1)C1CCN(S(=O)(=O)c2ccccc2)CC1 12.6 µM [activator, single point]
CC1CC(C)CN(C(=O)/C=C/c2ccc([N+](=O)[O-])s2)C1 (stereo unspecified) 3.55 µM [activator, single point]
COc1ccc(/C=C2/Sc3ccc(C(=O)NCCCN4CCOCC4)cc3NC2=O)cc1OC 14.1 µM [activator, single point]
Nc1ccccc1C#Cc1ccc([N+](=O)[O-])cc1 6.31 µM [activator, partial curve]
C=C1CCC[C@]2(C)C[C@H]3OC(=O)C(CNCCN(C)C)[C@H]3CC12 (stereo partly specified) 11.2 µM [activator, partial curve]
O=C1/C(=C/c2ccccc2[N+](=O)[O-])COc2ccccc21 3.16 µM [activator, partial curve, poor fit]
COCCNc1nc(NCc2ccc(NC(C)=O)cc2)c2sc(-c3ccccc3)cc2n1 5.62 µM [activator, single point]
CCc1nc(Oc2cccc(F)c2)c2oc3ccccc3c2n1 14.1 µM [activator, single point]
Fc1cc(F)c(F)c(SCCc2ccncc2)c1F 20 µM [activator, single point]
O=C1C(Br)=Cc2cccc3cccc1c23 35.5 µM [activator, single point]
O=C(COc1ccccc1O)Nc1ccc(Cl)cc1 22.4 µM [activator, single point]
CN1CCN(c2sc(S(C)(=O)=O)nc2S(=O)(=O)c2ccc(Cl)cc2)CC1 8.91 µM [activator, partial curve]

Reference: PubChem BioAssay AID624171 (National Center for Advancing Translational Sciences (NCATS), 2012)
